Test results reported in paper PMC6891891.
These are yes or no findings as the source states them, for the method shown. For part of these data: In cells and extracts the contact can be indirect. Some binding calls cover weakened binding; strength is not graded here. For part of these data: Sequences can lack the tags named with a protein. Values belong to the molecule of their own block, whether it stands above or below them.

Chains of the proteins cited; added tags and fusions are not shown. Lines headed by an entry give the natural chain unless they say otherwise; changes in a name come on top.
UniProt P25694: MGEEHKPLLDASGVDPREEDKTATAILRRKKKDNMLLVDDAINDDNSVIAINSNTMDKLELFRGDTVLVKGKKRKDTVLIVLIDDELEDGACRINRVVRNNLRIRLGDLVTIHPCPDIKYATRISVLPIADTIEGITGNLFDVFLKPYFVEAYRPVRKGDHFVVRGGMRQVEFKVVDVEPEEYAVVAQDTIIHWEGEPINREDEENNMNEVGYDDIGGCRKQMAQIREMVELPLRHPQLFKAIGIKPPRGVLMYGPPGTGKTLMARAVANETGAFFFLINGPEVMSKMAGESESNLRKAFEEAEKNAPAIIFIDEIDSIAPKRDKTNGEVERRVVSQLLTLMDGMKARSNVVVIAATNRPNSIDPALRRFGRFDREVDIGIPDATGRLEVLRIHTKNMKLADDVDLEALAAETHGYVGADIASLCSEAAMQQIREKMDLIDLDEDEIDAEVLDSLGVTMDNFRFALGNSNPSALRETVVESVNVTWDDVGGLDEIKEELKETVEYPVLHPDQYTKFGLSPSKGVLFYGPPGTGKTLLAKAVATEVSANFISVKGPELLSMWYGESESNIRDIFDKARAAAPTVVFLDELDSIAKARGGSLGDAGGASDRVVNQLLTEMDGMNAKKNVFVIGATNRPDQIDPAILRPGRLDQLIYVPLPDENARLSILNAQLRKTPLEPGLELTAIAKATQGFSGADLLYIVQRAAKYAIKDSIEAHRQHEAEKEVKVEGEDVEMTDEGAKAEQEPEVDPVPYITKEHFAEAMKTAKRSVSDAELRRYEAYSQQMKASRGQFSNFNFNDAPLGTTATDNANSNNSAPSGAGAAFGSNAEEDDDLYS
UniProt Q12306: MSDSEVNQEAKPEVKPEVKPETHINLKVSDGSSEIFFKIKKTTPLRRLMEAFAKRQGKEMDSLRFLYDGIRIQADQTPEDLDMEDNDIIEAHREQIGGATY

Key:
[1] = target: T1, GST-Ulp2_(1-400) with sim1,2,3 mutations (S. cerevisiae) (UniProt P40537); test: pull-down; GST fusions (2.5 μg) on glutathione Sepharose 4B beads incubated with 2.5 μg His-tagged Smt3 or 2.5 μg poly-SUMO3 chains in 0.7 mL 1X PBS, 150 mM NaCl, 1% Triton X-100, overnight at 4°C; 5 washes; western blot with anti-Smt3, anti-SUMO2/3, anti-GST; both purified
T1 sequence: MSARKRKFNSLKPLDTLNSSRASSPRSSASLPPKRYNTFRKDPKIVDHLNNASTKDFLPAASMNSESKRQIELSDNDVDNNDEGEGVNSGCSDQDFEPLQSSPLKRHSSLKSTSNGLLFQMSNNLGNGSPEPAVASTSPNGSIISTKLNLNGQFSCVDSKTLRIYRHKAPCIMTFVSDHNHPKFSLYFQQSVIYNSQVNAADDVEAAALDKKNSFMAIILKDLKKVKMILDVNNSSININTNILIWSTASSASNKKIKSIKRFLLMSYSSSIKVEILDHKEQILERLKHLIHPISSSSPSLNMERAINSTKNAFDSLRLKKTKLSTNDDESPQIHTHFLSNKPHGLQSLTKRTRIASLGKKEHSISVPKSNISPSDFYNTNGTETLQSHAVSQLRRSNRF

[2] = target: T2, GST-Ulp2_(1-400) with sim1,2,3,4,5 mutations (S. cerevisiae) (UniProt P40537); test: as above
T2 sequence: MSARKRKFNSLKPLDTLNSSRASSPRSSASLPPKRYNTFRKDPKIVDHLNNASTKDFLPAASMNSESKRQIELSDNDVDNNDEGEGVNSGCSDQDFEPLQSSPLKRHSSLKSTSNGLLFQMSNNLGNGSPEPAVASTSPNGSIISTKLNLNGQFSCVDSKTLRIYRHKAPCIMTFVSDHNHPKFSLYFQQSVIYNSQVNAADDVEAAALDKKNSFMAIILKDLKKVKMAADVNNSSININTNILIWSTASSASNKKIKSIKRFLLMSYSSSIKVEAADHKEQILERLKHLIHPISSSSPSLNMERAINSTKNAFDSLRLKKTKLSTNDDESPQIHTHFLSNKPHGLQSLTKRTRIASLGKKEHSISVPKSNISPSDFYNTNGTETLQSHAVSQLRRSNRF

[3] = target: T3, GST-Ulp2_(1-400), recombinant GST fusion of the Ulp2 N terminus (S. cerevisiae) (UniProt P40537); test: as above
T3 sequence: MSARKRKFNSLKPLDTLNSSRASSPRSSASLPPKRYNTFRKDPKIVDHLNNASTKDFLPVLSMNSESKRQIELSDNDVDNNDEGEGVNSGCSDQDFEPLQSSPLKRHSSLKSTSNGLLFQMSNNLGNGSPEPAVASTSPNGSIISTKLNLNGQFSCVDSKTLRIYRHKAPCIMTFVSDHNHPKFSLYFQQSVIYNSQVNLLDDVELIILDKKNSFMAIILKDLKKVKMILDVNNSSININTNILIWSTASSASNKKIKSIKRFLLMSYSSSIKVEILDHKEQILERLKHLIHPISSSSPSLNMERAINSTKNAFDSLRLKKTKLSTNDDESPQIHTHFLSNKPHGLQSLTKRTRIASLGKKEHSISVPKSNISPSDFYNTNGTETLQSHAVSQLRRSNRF

[4] = target: T4, Mcm4 subunit of the MCM helicase (S. cerevisiae) (UniProt P30665); test: co-IP; co-IP of Ulp2 and Mcm4 from native yeast extracts (Figure S1E); antibody and precipitated partner not given
T4 sequence: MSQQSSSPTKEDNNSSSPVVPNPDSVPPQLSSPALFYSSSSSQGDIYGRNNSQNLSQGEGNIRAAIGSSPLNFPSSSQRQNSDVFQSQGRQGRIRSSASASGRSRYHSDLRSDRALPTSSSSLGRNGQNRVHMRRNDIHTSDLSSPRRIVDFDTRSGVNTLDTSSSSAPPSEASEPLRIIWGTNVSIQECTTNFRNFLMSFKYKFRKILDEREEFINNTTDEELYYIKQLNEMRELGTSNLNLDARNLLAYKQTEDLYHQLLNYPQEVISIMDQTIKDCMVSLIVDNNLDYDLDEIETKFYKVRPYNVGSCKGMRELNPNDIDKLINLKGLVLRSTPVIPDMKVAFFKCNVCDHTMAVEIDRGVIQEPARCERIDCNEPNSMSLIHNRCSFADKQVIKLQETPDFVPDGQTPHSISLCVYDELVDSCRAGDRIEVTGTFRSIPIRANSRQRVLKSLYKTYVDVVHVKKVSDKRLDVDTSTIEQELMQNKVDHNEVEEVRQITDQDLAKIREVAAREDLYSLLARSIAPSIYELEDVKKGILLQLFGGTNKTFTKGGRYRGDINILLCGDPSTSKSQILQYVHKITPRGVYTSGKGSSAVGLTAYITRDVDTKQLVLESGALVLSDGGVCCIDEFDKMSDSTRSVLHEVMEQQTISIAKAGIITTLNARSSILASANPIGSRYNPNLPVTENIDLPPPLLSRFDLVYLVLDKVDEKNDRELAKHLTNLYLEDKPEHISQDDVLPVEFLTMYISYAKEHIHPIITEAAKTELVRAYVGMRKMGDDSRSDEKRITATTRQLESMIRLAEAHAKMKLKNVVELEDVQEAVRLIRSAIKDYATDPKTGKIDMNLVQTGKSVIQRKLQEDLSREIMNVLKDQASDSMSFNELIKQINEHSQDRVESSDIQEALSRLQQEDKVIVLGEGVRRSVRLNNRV

[5] = target: Cdc48 segregase, Y2H fusion (S. cerevisiae) (UniProt P25694); test: two-hybrid; directed Y2H: pGAD-C1 (AD) and pGBD-C1 (BD) fusions cotransformed into the Y2HGold strain; HIS3 reporter, 8 mM 3-AT added in Figure 4D
[6] = target: T5, Dbf4, AD-fusion and BD-fusion for Y2H (S. cerevisiae) (UniProt P32325); test: as above
T5 sequence: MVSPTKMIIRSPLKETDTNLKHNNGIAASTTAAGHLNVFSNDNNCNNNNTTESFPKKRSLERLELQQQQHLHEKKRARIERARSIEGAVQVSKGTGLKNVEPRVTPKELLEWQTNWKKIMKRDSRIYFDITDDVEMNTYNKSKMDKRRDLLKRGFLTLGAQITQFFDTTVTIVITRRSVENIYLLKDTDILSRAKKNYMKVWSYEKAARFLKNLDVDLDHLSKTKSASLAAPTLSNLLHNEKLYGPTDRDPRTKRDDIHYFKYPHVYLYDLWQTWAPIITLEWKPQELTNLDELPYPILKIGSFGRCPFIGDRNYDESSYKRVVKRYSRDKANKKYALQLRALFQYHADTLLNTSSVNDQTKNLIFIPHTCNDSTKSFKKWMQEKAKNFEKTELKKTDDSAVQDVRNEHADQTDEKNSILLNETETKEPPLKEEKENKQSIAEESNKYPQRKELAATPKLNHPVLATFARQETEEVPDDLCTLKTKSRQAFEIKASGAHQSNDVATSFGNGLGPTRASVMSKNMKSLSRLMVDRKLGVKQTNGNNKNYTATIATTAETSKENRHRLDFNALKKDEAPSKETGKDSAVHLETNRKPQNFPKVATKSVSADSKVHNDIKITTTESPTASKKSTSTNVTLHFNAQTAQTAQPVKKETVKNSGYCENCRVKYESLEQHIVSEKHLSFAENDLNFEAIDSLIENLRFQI

binding [1]: binds | binding [2]: binds weakly | binding [3]: binds
Molecule: Recombinant budding yeast N-terminally His-tagged wild-type SUMO (^HisSUMO) (from UniProt Q12306 1-101)

binding [4]: binds
B1: Ulp2 in the co-immunoprecipitation with Mcm4 (enzyme, UniProt P40537 1-1034)
chain: MSARKRKFNSLKPLDTLNSSRASSPRSSASLPPKRYNTFRKDPKIVDHLNNASTKDFLPVLSMNSESKRQIELSDNDVDNNDEGEGVNSGCSDQDFEPLQSSPLKRHSSLKSTSNGLLFQMSNNLGNGSPEPAVASTSPNGSIISTKLNLNGQFSCVDSKTLRIYRHKAPCIMTFVSDHNHPKFSLYFQQSVIYNSQVNLLDDVELIILDKKNSFMAIILKDLKKVKMILDVNNSSININTNILIWSTASSASNKKIKSIKRFLLMSYSSSIKVEILDHKEQILERLKHLIHPISSSSPSLNMERAINSTKNAFDSLRLKKTKLSTNDDESPQIHTHFLSNKPHGLQSLTKRTRIASLGKKEHSISVPKSNISPSDFYNTNGTETLQSHAVSQLRRSNRFKDVSDPANSNSNSEFDDATTEFETPELFKPSLCYKFNDGSSYTITNQDFKCLFNKDWVNDSILDFFTKFYIESSIEKSIIKREQVHLMSSFFYTKLISNPADYYSNVKKWVNNTDLFSKKYVVIPINISYHWFSCIITNLDAILDFHQNKDKNDAINSDEISINNPLVNILTFDSLRQTHSREIDPIKEFLISYALDKYSIQLDKTQIKMKTCPVPQQPNMSDCGVHVILNIRKFFENPVETIDVWKNSKIKSKHFTAKMINKYFDKNERNSARKNLRHTLKLLQLNYISYLKKENLYEEVMQMEEKKSTNINNNENYDDDDEEIQIIENIDQSSKDNNAQLTSEPPCSRSSSISTTEREPTELHNSVVRQPTGEIITDNEDPVRAASPETASVSPPIRHNILKSSSPFISESANETEQEEFTSPYFGRPSLKTRAKQFEGVSSPIKNDQALSSTHDIMMPSPKPKRIYPSKKIPQLSSHVQSLSTDSMERQSSPNNTNIVISDTEQDSRLGVNSESKNTSGIVNRDDSDVNLIGSSLPNVAEKNHDNTQESNGNNDSLGKILQNVDKELNEKLVDIDDVAFSSPTRGIPRTSATSKGSNAQLLSNYGDENNQSQDSVWDEGRDNPILLEDEDP

binding [5]: binds | binding [6]: binds
B2: catalytically dead Ulp2 (Ulp2-C624S), AD-fusion and BD-fusion for Y2H (enzyme, UniProt P40537 1-1034)
chain: MSARKRKFNSLKPLDTLNSSRASSPRSSASLPPKRYNTFRKDPKIVDHLNNASTKDFLPVLSMNSESKRQIELSDNDVDNNDEGEGVNSGCSDQDFEPLQSSPLKRHSSLKSTSNGLLFQMSNNLGNGSPEPAVASTSPNGSIISTKLNLNGQFSCVDSKTLRIYRHKAPCIMTFVSDHNHPKFSLYFQQSVIYNSQVNLLDDVELIILDKKNSFMAIILKDLKKVKMILDVNNSSININTNILIWSTASSASNKKIKSIKRFLLMSYSSSIKVEILDHKEQILERLKHLIHPISSSSPSLNMERAINSTKNAFDSLRLKKTKLSTNDDESPQIHTHFLSNKPHGLQSLTKRTRIASLGKKEHSISVPKSNISPSDFYNTNGTETLQSHAVSQLRRSNRFKDVSDPANSNSNSEFDDATTEFETPELFKPSLCYKFNDGSSYTITNQDFKCLFNKDWVNDSILDFFTKFYIESSIEKSIIKREQVHLMSSFFYTKLISNPADYYSNVKKWVNNTDLFSKKYVVIPINISYHWFSCIITNLDAILDFHQNKDKNDAINSDEISINNPLVNILTFDSLRQTHSREIDPIKEFLISYALDKYSIQLDKTQIKMKTCPVPQQPNMSDSGVHVILNIRKFFENPVETIDVWKNSKIKSKHFTAKMINKYFDKNERNSARKNLRHTLKLLQLNYISYLKKENLYEEVMQMEEKKSTNINNNENYDDDDEEIQIIENIDQSSKDNNAQLTSEPPCSRSSSISTTEREPTELHNSVVRQPTGEIITDNEDPVRAASPETASVSPPIRHNILKSSSPFISESANETEQEEFTSPYFGRPSLKTRAKQFEGVSSPIKNDQALSSTHDIMMPSPKPKRIYPSKKIPQLSSHVQSLSTDSMERQSSPNNTNIVISDTEQDSRLGVNSESKNTSGIVNRDDSDVNLIGSSLPNVAEKNHDNTQESNGNNDSLGKILQNVDKELNEKLVDIDDVAFSSPTRGIPRTSATSKGSNAQLLSNYGDENNQSQDSVWDEGRDNPILLEDEDP
